Results are given in words; binding and its absence hold for the method and conditions named. Binding seen in cells or lysates may run through a third protein. Some binding calls cover weakened binding; strength is not graded here. Sequences can lack the tags named with a protein.
Target: T1, myc-tagged human ARMC5(R898W) (human) (UniProt Q96C12)
T1 sequence: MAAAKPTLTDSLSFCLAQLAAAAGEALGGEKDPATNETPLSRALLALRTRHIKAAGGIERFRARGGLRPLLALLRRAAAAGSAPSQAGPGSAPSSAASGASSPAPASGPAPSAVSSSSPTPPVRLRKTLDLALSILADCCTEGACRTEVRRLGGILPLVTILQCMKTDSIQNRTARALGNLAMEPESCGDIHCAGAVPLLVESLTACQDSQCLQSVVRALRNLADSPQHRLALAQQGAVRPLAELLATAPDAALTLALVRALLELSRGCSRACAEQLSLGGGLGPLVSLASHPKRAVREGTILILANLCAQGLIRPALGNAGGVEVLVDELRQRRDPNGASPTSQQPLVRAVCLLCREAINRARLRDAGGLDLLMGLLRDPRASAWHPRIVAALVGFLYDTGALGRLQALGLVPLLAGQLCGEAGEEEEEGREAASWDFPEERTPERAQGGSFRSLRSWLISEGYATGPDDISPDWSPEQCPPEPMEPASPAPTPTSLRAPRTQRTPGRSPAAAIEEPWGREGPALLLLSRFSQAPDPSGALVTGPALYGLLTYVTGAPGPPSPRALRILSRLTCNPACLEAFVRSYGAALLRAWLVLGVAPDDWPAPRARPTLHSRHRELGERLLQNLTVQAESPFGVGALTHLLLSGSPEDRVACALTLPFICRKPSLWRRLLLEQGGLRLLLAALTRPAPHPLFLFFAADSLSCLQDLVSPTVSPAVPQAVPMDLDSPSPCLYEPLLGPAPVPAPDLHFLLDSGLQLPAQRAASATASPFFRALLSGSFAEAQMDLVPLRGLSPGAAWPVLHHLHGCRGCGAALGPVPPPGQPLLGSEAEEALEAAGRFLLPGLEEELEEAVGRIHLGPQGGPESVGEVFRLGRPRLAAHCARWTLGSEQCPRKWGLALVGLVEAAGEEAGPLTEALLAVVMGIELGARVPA
Experiment: co-IP; Myc IP: HEK293T cells transfected, lysed in TNE buffer (150 mM NaCl, 1% NP40), anti-myc antibody and Protein G Sepharose, blotted with anti-FLAG

binding: binds
B1: FLAG-SREBF1(N), N-terminus of mouse SREBF1, from pcDNA3.1-FLAG-Srebf1(N) in HEK293T (domain or fragment, UniProt Q9WTN3 2-453)
chain: DELAFGEAALEQTLAEMCELDTAVLNDIEDMLQLINNQDSDFPGLFDAPYAGGETGDTGPSSPGANSPESFSSASLASSLEAFLGGPKVTPAPLSPPPSAPAALKMYPSVSPFSPGPGIKEEPVPLTILQPAAPQPSPGTLLPPSFPAPPVQLSPAPVLGYSSLPSGFSGTLPGNTQQPPSSLPLAPAPGVLPTPALHTQVQSLASQQPLPASAAPRTNTVTSQVQQVPVVLQPHFIKADSLLLTAVKTDAGATVKTAGISTLAPGTAVQAGPLQTLVSGGTILATVPLVVDTDKLPIHRLAAGSKALGSAQSRGEKRTAHNAIEKRYRSSINDKIVELKDLVVGTEAKLNKSAVLRKAIDYIRFLQHSNQKLKQENLTLRSAHKSKSLKDLVSACGSGGGTDVSMEGMKPEVVETLTPPPSDAGSPSQSSPLSFGSRASSSGGSDSEPDSP

From publication PMC9462479
